Several values for one entry are separate records, joined by “and”; a condition that tells them apart may be missing. Equal values may be shown once.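 Each compound was tested at five concentrations against cells in 96-well plates for 48 hours. Here, GI50 denotes the concentration required for 50% inhibition of growth. At the TGI there is no net growth.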 Square brackets hold non-standard residues; d marks the D form. Peptide text beside a SMILES is read from it. * marks the point of attachment. ξ: configuration not given here. NMeF = CN[C@@H](Cc1ccccc1)C(=O)O; NMeV = CN[C@H](C(=O)O)C(C)C; ξNMeV = CNC(C(=O)O)C(C)C; Boc = CC(C)(C)OC(=O)*; OBn = c1ccc(CO*)cc1
Tested on: NCI-H322M lung
Assay: growth of human tumour cells (NCI), 48 h

SMILES | GI50 | TGI
O=C1NC(=NCCc2ccc(Br)cc2)S/C1=C\c1ccc2ncccc2c1 | > 25 µM | > 25 µM
Clc1ccc(-c2nc(NCc3ccco3)c3ccccc3n2)c(Cl)c1 | 12.2 µM | 35.1 µM
CC(=O)C1C(=O)C(=O)N(CCN2C(=O)C(=O)C(C(C)=O)C2=O)C1=O (stereo not given) |  | > 100 µM
CSC(C1c2ccccc2N(C)c2[nH]c(=O)n(C)c(=O)c21)S(=O)(=O)c1ccc(C)cc1 (stereo not given) |  | > 100 µM
CCNC(=S)NNC(=O)c1ccccc1Nc1ccccc1C(=O)NNC(=S)NCC |  | > 100 µM
CCCCCCCCCCCCOC1C(COCCN2CCCCC2)OC2OC(C)(C)OC21 (stereo not given) |  | 19.1 µM
CC(C)(C)[Si](C)(C)OC1[C@@H](COC(=O)NC(=O)CCl)O[C@@H](n2cnc3c(N)ncnc32)[C@H]1O[Si](C)(C)C(C)(C)C (stereo not given in full) | 9.78 µM | 17.3 µM
COc1ccc2nc3ccccc3c(NCCNCC(C)O)c2c1 (stereo not given) | 0.288 µM | 1.43 µM
O=C1C(Cl)=C(NCCCN(CCCNC2=C(Cl)C(=O)c3ccccc3C2=O)C2=C(Cl)C(=O)c3ccccc3C2=O)C(=O)c2ccccc21 | 2.44 µM | 11.5 µM
COc1ccc([C@H]2CC3C(=O)N(c4ccc(OC)cc4)C(=O)C3c3[nH]c4ccccc4c32)cc1 (stereo not given in full) |  | > 100 µM
CCN(CC)c1ccc(C2N3CCCCC3[C@@H]3c4[nH]c5ccccc5c4CCN23)cc1 (stereo not given in full) |  | > 100 µM
CCC(Nc1ncnc2nc[nH]c12)C(=O)O (stereo not given) |  | > 100 µM
CC#CCCCC1(C)CCNC1=S (stereo not given) |  | > 10 µM
FC(F)(F)c1cccc(-c2[nH]ncc2-c2nnnn2-c2ccccc2)c1 | 10.6 µM | 29.8 µM
CC1CN(CCO)CCN1c1ccccc1 (stereo not given) |  | > 100 µM
CCS(=O)(=O)c1ccc(OC)c(Nc2ncc(-c3cccc(F)c3)o2)c1 | > 25 µM | > 25 µM
CCCCOC(=O)NC(=O)c1cn(CCCOC(=O)CCCCCCCCC(=O)OCCCn2cc(C(=O)NC(=O)OCCCC)c(=O)n(C)c2=O)c(=O)n(C)c1=O |  | > 100 µM
COc1ccc2c(c1)-c1c(c3cc(OC)ccc3n(CCN(C)C)c1=O)C2=O | 0.423 µM | 3.04 µM
COC(=O)[C@@]12C3=NO[C@]1(C(=O)OC)C(O[Si](C)(C)C(C)(C)C)[C@@H](OC(C)=O)[C@@H](OC(C)=O)[C@@H]2[C@@H](OCc1ccccc1)CC3 (stereo not given in full) |  | > 100 µM
COc1cccc(OC)c1NC(=O)C(=O)Nn1c(NNC(=O)c2ccncc2)nc2ccccc2c1=O |  | > 100 µM
O=c1[nH]c2ccc(CC(=S)N3CCOCC3)cc2o1 |  | > 100 µM

SMILES | GI50 | TGI
CNc1cc(-c2cccc(OC(F)(F)F)c2)nc2ccc(N3CCCC3)cc12 | 1.63 µM and 1.77 µM and 1.79 µM | 3.02 µM and 3.25 µM and 3.19 µM
C(=N\NC1=NCCN1)/c1ccc2ccccc2c1 |  | 31.9 µM
COc1ccc2c(c1)nnc1c3cccnc3[nH]c21 | 10.1 µM and 8.36 µM | 50 µM and 38.2 µM
CC12O[C@H](C[C@@H](OC(=O)CCC(=O)O)[C@H]1O)n1c3ccccc3c3c4c(c5c6ccccc6n2c5c31)C(=O)NC4=O | 1.79 µM | > 50 µM
Cc1cc(N2CCOCC2)nc(NCc2cc(Nc3ccnc4cc(Cl)ccc34)ccc2F)n1 | 1.65 µM | 3.32 µM
O=c1c2c3c(sc2nc2n1NC=NN2)CCCC3 |  | > 100 µM
CC1=C[C@@H]2c3c(c(O)c(O)c4oc5cc(O)cc(O)c5c(=O)c34)[C@@H](c3cc(O)c(O)c4oc5cc(O)cc(O)c5c(=O)c34)[C@@H]2C(C)(C)C1 | 3.6 µM | 13.9 µM
CCN(C(=O)N[C@H](C(=O)N[C@@H](CSC)C(=O)N[C@@H](C)C(=O)OC)C(C)C)c1ccccc1 |  | 30.1 µM
COc1ccc(Nc2nc(N)c(C(=O)c3ccc(Cl)cc3)s2)cc1 |  | 31.1 µM
CC[C@]12C=CCN3CC[C@@]4(c5cc(Br)c(OC)cc5N(C)[C@H]4[C@@](O)(C(=O)NC(Cc4c[nH]c5ccccc45)C(=O)OC)[C@@H]1O)[C@@H]32 (stereo not given in full) |  | > 100 µM
COc1cc(C(=O)n2nc(N)c3c(C)cc(C)nc32)cc(OC)c1OC | > 100 µM | > 100 µM
Nc1ccn(C2CCC(COP(=O)(O)OCC(O)COP(=O)(O)OCC3OC(n4cc(F)c(=O)[nH]c4=O)CC3O)O2)c(=O)n1 (stereo not given) |  | > 100 µM
CN(C)CCC[N+]1=Nc2cccc3cccc(c23)N1 |  | > 100 µM
CNC(=O)CNC(=O)N(C[C@@H]1CCCN1C(=O)[C@H](CC(C)C)NC(=O)OC(C)(C)C)C(C)C |  | > 100 µM
COC(=O)C(=O)C(C(=O)OC)C(=O)C(=O)Nc1c(Cl)cc([N+](=O)[O-])cc1Cl (stereo not given) |  | > 100 µM
CCOC(=O)/C=C1/SC(=Nc2ccc(C#N)cc2)N(Cc2ccco2)C1=O | 10.9 µM | 23.1 µM
CC(C)C(C(=O)N(C)[C@H](C(=O)N1CCC[C@H]1C(=O)N(C)[C@@H](Cc1ccccc1)C(=O)OCc1ccccc1)C(C)C)N(C)C(=O)[C@@H](NC(=O)OC(C)(C)C)C(C)C (stereo not given in full) (Boc-V[ξNMeV][NMeV]P[NMeF]-OBn) |  | > 31.6 µM
COc1ccc(C2=NNC(=O)c3ccccc3N2c2nc(-c3cccs3)nc3cc(OC)c(OC)cc23)cc1 |  | > 100 µM
CCOC(=O)N1CCC2(CC1)C[C@@](C(C)=O)(c1ccccc1)C(C)O2 (stereo not given in full) |  | > 100 µM
COC(=O)c1c(O)ccc2c1c1c(n2Cc2cccc(C)c2)C(=O)c2ccccc2C1 |  | > 75 µM
COC(=O)c1cc2cc(/C=C3/SC(=S)N(N(C(C)=O)C(C)=O)C3=O)oc2n1Cc1ccccc1 | 3.12 µM | 23.2 µM

SMILES | GI50 | TGI
NC(=O)c1ncn(C2OC(CO)C(O)C2O)c1O (stereo not given) |  | > 100 µM
COc1ccc(NC(=O)C(=O)Cc2ccc([N+](=O)[O-])c([N+](=O)[O-])c2CC(=O)C(=O)Nc2ccc(OC)cc2OC)c(OC)c1 |  | > 100 µM
CC12CCc3ccccc3C1=NNC(=O)C2 (stereo not given) |  | > 100 µM
CCCCCCCCCCCC[N+]12CC[N+](C)(CC1)CC2 |  | > 100 µM
O=C1/C(=C/c2ccc(C(F)(F)F)cc2)COc2ccc(O)c(O)c21 | 1.5 µM | 2.86 µM
COc1ccc(C(O)c2ccccn2)cc1 (stereo not given) |  | > 100 µM
CC1(C)C(=O)/C=C\C(=O)C(C)(C)C(=O)/C=C\C(=O)C(C)(C)C2=CC=C(O2)C(C)(C)C(=O)/C=C\C1=O |  | 36.8 µM
CCOS(=O)(=O)c1ccc(-c2c3nc(c(-c4ccc(S(=O)(=O)OCC)cc4)c4ccc([nH]4)c(-c4ccc(S(=O)(=O)OCC)cc4)c4nc(c(-c5ccc(S(=O)(=O)OCC)cc5)c5ccc2[nH]5)C=C4)C=C3)cc1 |  | > 31.6 µM
CC(C)(C)OC(=O)N1N=CCC1c1ccccc1 (stereo not given) |  | > 100 µM
COc1ccc(-c2c(-c3ccc(C#N)c(F)c3)nc(N3CCC(N)CC3)n(C)c2=O)cc1F | 22.3 µM | > 100 µM
O=C1/C(=C/c2ccc([N+](=O)[O-])o2)Oc2ccc(Cl)cc21 | 25.4 µM | > 100 µM
O=c1/c(=C/c2ccccn2)sc2nc3cc4c(cc3n12)OCCO4 |  | > 100 µM
CN(C)S(=O)(=O)c1nc(Cl)c2[nH]cnc2n1 |  | > 100 µM
Cc1cc(C)c2c(n1)S(=O)(=O)N(CCCN1CCN(c3cccc(Cl)c3)CC1)/C(=C(\O)c1ccc(Br)cc1)C2=O |  | > 100 µM
N#COc1ccc(Oc2ccc(OC#N)cc2)cc1 |  | > 100 µM
CN(C)CCCn1c(Cn2nc3ccccc3n2)nc2cc(C(F)(F)F)ccc21 |  | > 100 µM
O=C(NC1C/C(=N/O)c2c(Br)sc(Br)c21)C(F)(F)F (stereo not given) |  | > 100 µM
Cc1cc(N(CCNc2ccnc3cc(Cl)ccc23)Cc2ccc3c(c2)OCO3)nc(N2CCCC2)n1 | 2.04 µM | 7.86 µM
NC(=O)/N=C/c1c(O)c2ccccc2oc1=O |  | > 100 µM
Cn1c(I)c(C#C[Si](C)(C)C)c(=O)[nH]c1=O | 17.3 µM | 32.3 µM
COc1ccc(/C=C/c2ccnc3ccccc23)cc1OC |  | > 100 µM

SMILES | GI50 | TGI
COC1/C(=C\C(C)=O)c2ccccc2N1C(C)=O (stereo not given) |  | > 100 µM
CCN(CC)CCC1CCCCN1CC(=O)N1c2cc(Cl)ccc2NC(=O)CC1C (stereo not given) |  | > 100 µM
O=C(NCCNCCO)c1ccc(Nc2nc3ccccc3c3occc23)cc1 | 2.69 µM | 12.8 µM
COc1cnccc1Nc1nc(-c2nn(Cc3c(F)cc(OCCO)cc3F)c3ccccc23)ncc1OC | 2.96 µM | 24.3 µM
Cc1ccc(-c2nc3sc(C)cn3c2/C=C2\C(=O)Nc3ccc(Cl)cc32)cc1 | 18 µM | > 100 µM
CC1=C2C=CC(=O)C[C@@]2(C)CCC1 |  | > 100 µM
O=S(=O)(c1ccccc1)c1ccc(-c2nc(-c3ccc4c(c3)Sc3ccccc3S4)cs2)cc1 |  | > 100 µM
COc1cc(C2NC(=O)C(C#N)=C(Nc3cccc(C)c3)S2)ccc1O (stereo not given) | > 100 µM | > 100 µM
COc1ccc(C2=Nc3ccccc3N=C(SC)C2)cc1 |  | > 100 µM
N#CC1=C(N)OC2=C(CCOc3c2ccc2ccccc32)C1c1ccc(Br)cc1 (stereo not given) | 31.9 µM | 89.8 µM
CN(C)c1ccc2[nH]c3c(C(N)=O)cc(=O)c(=O)c=3oc2c1 | 6.48 µM | > 100 µM
COc1cc(/C=C/C(=N\NC(N)=S)c2sc(NNC(C)=O)nc2C)ccc1O |  | > 100 µM
CCC(=O)Nc1nnc(Cc2ccc(OC)c(OC)c2)s1 | > 100 µM | > 100 µM
COc1ccc(-c2oc3cc(O)c(OC)c(O)c3c(=O)c2O)cc1 |  | > 100 µM
Cc1c(C(N)=O)sc2nc(C)n(/N=c3\scc(-c4ccccc4)n3Cc3ccccc3)c(=O)c12 | 3.71 µM | > 100 µM
CC(=O)[C@@]1(c2ccccc2)CC2(CCN(C)CC2)O[C@H]1C |  | > 100 µM
N#CC1=C(N)N(/N=C/c2ccco2)C(c2ccco2)C1(C#N)C#N (stereo not given) |  | 33.4 µM
CC(=O)NC(C)(C)C1CCC(C)CC1 (stereo not given) |  | > 100 µM

Source: PubChem BioAssay (NCI)
